± gives the standard deviation of the averaged measurements. Whole data set: some 33,000 sequences, median “E-score (dimensionless, -0.5 to 0.5)” near -0.046, cut for the highest 2% near 0.36. Some of the results follow.
These sequences were tested on T1, SpTbr T-box DNA-binding domain (GST fusion) (assay: PBM E-score of 8-mer (E-score (dimensionless, -0.5 to 0.5)); Tbr is Tbrain of the sea star Patiria miniata (Pm) or the sea urchin Strongylocentrotus purpuratus (Sp); higher = stronger binding preference; most listed sequences are background and not binding sites). Settings: the construct has about 5 more residues each side.
T1 sequence: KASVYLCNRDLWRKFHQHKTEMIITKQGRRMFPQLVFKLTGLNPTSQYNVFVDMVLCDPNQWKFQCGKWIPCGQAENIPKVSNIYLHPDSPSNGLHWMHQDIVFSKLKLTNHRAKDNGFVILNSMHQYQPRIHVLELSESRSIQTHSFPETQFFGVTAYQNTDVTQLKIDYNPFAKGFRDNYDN
Summary of the method: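 Expression of GST-fused Tbr T-box DNA-binding domains, each holding the full T-box plus roughly five flanking residues, was carried out in BL21 E. coli at 20 °C, with purification by glutathione affinity chromatography. Universal Agilent arrays made double-stranded by primer extension were incubated with the protein at 200 nM in PBS (pH 7.5), then scanned and quantified. All ungapped 8-mers were scored from probe intensities, and each received an enrichment E-score from the Universal PBM Analysis Suite, averaged over duplicate arrays.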

First: AGTGGGAA
Second: GACTACCA
The “PBM E-score of 8-mer” value of the first is higher: 0.217 ± 0.044 for the first, -0.113 ± 0.086 for the second.

Going from CCGGGTAA to GAGGCTGC, the “PBM E-score of 8-mer” value rises from -0.175 ± 0.034 to -0.0285 ± 0.077.

Compared with CGAGCCCC, AGCACTAG is lower in “PBM E-score of 8-mer” value: 0.0228 ± 0.043 for the first, -0.2417 ± 0.0019 for the second.

Going from GTTCATCA to CTGATATA, the “PBM E-score of 8-mer” value falls from 0.0211 ± 0.0087 to -0.133 ± 0.0076.

First: GCAGATAC
Second: CTGCGAAA
The “PBM E-score of 8-mer” value of the first is lower: -0.188 ± 0.01 for the first, 0.342 ± 0.036 for the second.

Going from CGATCACC to ACGACTCT, the “PBM E-score of 8-mer” value falls from 0.034 ± 0.021 to -0.0322 ± 0.0043.

AGCTGACT and CTGTAGTA are within error of each other in “PBM E-score of 8-mer” value: -0.204 ± 0.031 for the first, -0.17 ± 0.027 for the second.

CATCTGGA and CCGGCGTA are within error of each other in “PBM E-score of 8-mer” value: -0.0803 ± 0.042 for the first, -0.0982 ± 0.0024 for the second.

Going from GATTTTTA to CCTTCGAG, the “PBM E-score of 8-mer” value rises from -0.188 ± 0.0038 to 0.07531 ± 0.00073.

Compared with AACGTGCA, GATAGCCC is lower in “PBM E-score of 8-mer” value: 0.0678 ± 0.024 for the first, -0.217 ± 0.0042 for the second.

ACGCAACT and CTTGGATC are within error of each other in “PBM E-score of 8-mer” value: 0.0194 ± 0.043 for the first, -0.102 ± 0.083 for the second.

CGGTGGAA and GAAGATAA are within error of each other in “PBM E-score of 8-mer” value: -0.0405 ± 0.033 for the first, -0.0122 ± 0.087 for the second.

CAAGTCAG and AACTTAAG are within error of each other in “PBM E-score of 8-mer” value: -0.139 ± 0.091 for the first, -0.0796 ± 0.11 for the second.

AGGGAAAG and ATGGAGTC are within error of each other in “PBM E-score of 8-mer” value: -0.11 ± 0.059 for the first, -0.1693 ± 0.00018 for the second.

GAACTGCC and GACCGATA are within error of each other in “PBM E-score of 8-mer” value: -0.146 ± 0.024 for the first, -0.15 ± 0.1 for the second.

Compared with ATCTGCGA, CCCGATCG is lower in “PBM E-score of 8-mer” value: 0.183 ± 0.034 for the first, -0.127 ± 0.018 for the second.

Compared with GATCCGCC, ACTGTGGA is higher in “PBM E-score of 8-mer” value: -0.161 ± 0.076 for the first, -0.0283 ± 0.019 for the second.

Compared with AGGGAGGA, ATTCCCTG is higher in “PBM E-score of 8-mer” value: -0.385 ± 0.054 for the first, -0.161 ± 0.059 for the second.

Going from CGCCTGAC to GTCGAGCA, the “PBM E-score of 8-mer” value falls from 0.111 ± 0.0091 to 0.0707 ± 0.028.

Compared with GTAGCTAC, CCGCCTAG is higher in “PBM E-score of 8-mer” value: -0.408 ± 0.089 for the first, -0.135 ± 0.12 for the second.

Compared with AATGGTCC, AGCAGTAG is higher in “PBM E-score of 8-mer” value: -0.328 ± 0.064 for the first, -0.115 ± 0.056 for the second.

Compared with AAGCGCAA, AGACCAGA is lower in “PBM E-score of 8-mer” value: 0.113 ± 0.0027 for the first, -0.239 ± 0.031 for the second.

First: ATTGCTAA
Second: CACATTAG
The “PBM E-score of 8-mer” value of the first is lower: 0.111 ± 0.073 for the first, 0.2308 ± 0.00053 for the second.

CGGAACTA and AGACGACT are within error of each other in “PBM E-score of 8-mer” value: -0.186 ± 0.047 for the first, -0.202 ± 0.093 for the second.

GGATATCC and GAATATCC are within error of each other in “PBM E-score of 8-mer” value: -0.122 ± 0.057 for the first, -0.102 ± 0.017 for the second.

CGTTAGAA and ACTTCCTA are within error of each other in “PBM E-score of 8-mer” value: 0.0251 ± 0.033 for the first, 0.0196 ± 0.063 for the second.

Compared with ACACTAAA, AGCGCGTC is lower in “PBM E-score of 8-mer” value: 0.228 ± 0.0039 for the first, 0.182 ± 0.021 for the second.

Going from GCAGCACC to CCATGTCC, the “PBM E-score of 8-mer” value falls from 0.252 ± 0.0061 to -0.383 ± 0.012.

Going from CTGGGTCC to AATGTCGT, the “PBM E-score of 8-mer” value rises from -0.0833 ± 0.033 to 0.0328 ± 0.037.

GGCCGCAA and CGAACGTA are within error of each other in “PBM E-score of 8-mer” value: 0.0133 ± 0.066 for the first, 0.00396 ± 0.01 for the second.

Going from ACGGACCC to AGAGACAC, the “PBM E-score of 8-mer” value rises from -0.132 ± 0.016 to 0.132 ± 0.017.

Going from ACGTAAAT to GCGAACCC, the “PBM E-score of 8-mer” value rises from 0.021 ± 0.037 to 0.257 ± 0.028.

Compared with AGAAAACT, AGCCCGGA is lower in “PBM E-score of 8-mer” value: -0.226 ± 0.016 for the first, -0.363 ± 0.051 for the second.

CATATTGA and CAAACGCA are within error of each other in “PBM E-score of 8-mer” value: 0.0115 ± 0.11 for the first, -0.0586 ± 0.061 for the second.

First: CATTGGAG
Second: CGGTGCTA
The “PBM E-score of 8-mer” value of the first is lower: -0.0737 ± 0.091 for the first, 0.258 ± 0.035 for the second.

CATCTAAC and AATGACTC are within error of each other in “PBM E-score of 8-mer” value: 0.048 ± 0.04 for the first, 0.0605 ± 0.065 for the second.

Compared with GTAACTAA, CGGGTGCA is higher in “PBM E-score of 8-mer” value: -0.299 ± 0.025 for the first, 0.157 ± 0.062 for the second.

First: CAGTGGGC
Second: CAATGGCC
The “PBM E-score of 8-mer” value of the first is lower: -0.126 ± 0.0071 for the first, -0.1163 ± 0.00099 for the second.

First: GACATCAC
Second: CCCCTGCA
The “PBM E-score of 8-mer” value of the first is higher: 0.172 ± 0.0072 for the first, -0.101 ± 0.04 for the second.

ATACATTC and CTAGGCAA are within error of each other in “PBM E-score of 8-mer” value: -0.112 ± 0.12 for the first, -0.129 ± 0.021 for the second.

GACTTGCC and AATGACAG are within error of each other in “PBM E-score of 8-mer” value: 0.123 ± 0.055 for the first, 0.0199 ± 0.049 for the second.

First: ACAAGAGA
Second: CTCTGTCC
The “PBM E-score of 8-mer” value of the first is higher: -0.0789 ± 0.03 for the first, -0.175 ± 0.0063 for the second.

Compared with CATCACGA, AACGTGGG is higher in “PBM E-score of 8-mer” value: 0.023 ± 0.054 for the first, 0.191 ± 0.00081 for the second.

Compared with CCTCTCGA, ATGCTCTG is lower in “PBM E-score of 8-mer” value: 0.0753 ± 0.052 for the first, -0.168 ± 0.038 for the second.

AGCATCCG and CAATGTTC are within error of each other in “PBM E-score of 8-mer” value: -0.00374 ± 0.047 for the first, 0.0149 ± 0.0044 for the second.

Going from GGATTGTA to ACGGCGCC, the “PBM E-score of 8-mer” value rises from -0.0849 ± 0.02 to 0.0439 ± 0.037.

CAACCCTG and ACCTACGT are within error of each other in “PBM E-score of 8-mer” value: 0.014 ± 0.024 for the first, 0.0495 ± 0.029 for the second.

Going from GGGACTTA to CTACGAAG, the “PBM E-score of 8-mer” value rises from -0.274 ± 0.00081 to -0.134 ± 0.028.

Going from ATCGCACA to GCGCATGA, the “PBM E-score of 8-mer” value falls from 0.366 ± 0.0063 to -0.0586 ± 0.067.

First: CATGCACA
Second: ACCCTATC
The “PBM E-score of 8-mer” value of the first is lower: -0.0153 ± 0.014 for the first, 0.0781 ± 0.032 for the second.

Going from TCTGAGCA to GAGACGTA, the “PBM E-score of 8-mer” value rises from -0.164 ± 0.098 to 0.0575 ± 0.021.

ATTTGGAG and ACATTAAA are within error of each other in “PBM E-score of 8-mer” value: -0.228 ± 0.0036 for the first, -0.164 ± 0.062 for the second.

CCTGTATA and CGTACTCC are within error of each other in “PBM E-score of 8-mer” value: -0.0306 ± 0.022 for the first, -0.0535 ± 0.087 for the second.

Going from CCTATTTC to ACCGATCG, the “PBM E-score of 8-mer” value rises from -0.154 ± 0.055 to 0.256 ± 0.12.

Compared with AGTCATAT, CGACAGGA is higher in “PBM E-score of 8-mer” value: -0.228 ± 0.092 for the first, 0.00104 ± 0.065 for the second.

Reference: the supplement of paper PMC4166925
